# The other results are listed elsewhere or left out.
# B1: Clec49 (Caenorhabditis elegans) (protein)
# chain: MTRLTLLLFGLLGAATAQTCNTGGIYNEQFNRCYQYFTAPAQFSFAEQQCNLLGGHLASVQNGQENALLQSNAANSFKRSNYSDYWIGATDLETSGTWKWTDPSVTFDYSNWQLGEPQSGSDCAIQDKGDGTWSAIGCTSYRPYVCVTPVIMTATCPPITTPIPTTCPTPAPCPIKQCVPSCDQGWTYFSPTDFCYRVYHGEKFNDAEASCVLLGGHLASIHSLTENTFVNNIASCGIKEGKYEHLAWIGMRKVGQDWVWTDGTPSDYFNWAPKQPDNPKKELCVQTAPDLSHDKWYENWNNLECNEVMRAYICKKASIHN
# How the values were obtained:
# Experiment in all cases: glycan array binding signal (z-score within array); higher = stronger binding
# Conditions in all cases: glycan notation: IUPAC condensed, linker removed
# [1] = target: Gal(b1-4)Glc
# In short: (§1)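 Arrays were curated from the Consortium for Functional Glycomics database, 3228 in total, and kept only where the protein sequence was available. Binding is expressed as a within-array Z-score. This score was averaged across arrays of the same protein sequence at different concentrations or buffers and across linkers, and negative values can be read as non-binding.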
# [2] = target: Gal(b1-4)Glc6S
# In short: as §1
# [3] = target: Gal(b1-4)GlcNAc
# In short: as §1
# [4] = target: Gal(b1-4)GlcNAc(a1-6)Gal(b1-4)GlcNAc
# In short: as §1
# [5] = target: Gal(b1-4)GlcNAc(b1-2)Man
# In short: as §1
# [6] = target: Gal(b1-4)GlcNAc(b1-2)Man(a1-3)Man(b1-4)GlcNAc(b1-4)GlcNAc
# In short: as §1
# [7] = target: Gal(b1-4)GlcNAc(b1-2)Man(a1-3)[Gal(b1-4)GlcNAc(b1-2)Man(a1-6)]Man(b1-4)GlcNAc(b1-4)GlcNAc
# In short: as §1
# [8] = target: Gal(b1-4)GlcNAc(b1-2)Man(a1-3)[Gal(b1-4)GlcNAc(b1-2)Man(a1-6)]Man(b1-4)GlcNAc(b1-4)[Fuc(a1-6)]GlcNAc
# In short: as §1
# [9] = target: Gal(b1-4)GlcNAc(b1-2)Man(a1-3)[Gal(b1-4)GlcNAc(b1-2)Man(a1-6)][Gal(b1-4)GlcNAc(b1-4)]Man(b1-4)GlcNAc(b1-4)[Fuc(a1-6)]GlcNAc
# In short: as §1
# [10] = target: Gal(b1-4)GlcNAc(b1-2)Man(a1-3)[Gal(b1-4)GlcNAc(b1-2)Man(a1-6)][GlcNAc(b1-4)]Man(b1-4)GlcNAc(b1-4)[Fuc(a1-6)]GlcNAc
# In short: as §1
# [11] = target: Gal(b1-4)GlcNAc(b1-2)Man(a1-3)[GlcNAc(b1-2)Man(a1-6)]Man(b1-4)GlcNAc(b1-4)GlcNAc
# In short: as §1
# [12] = target: Gal(b1-4)GlcNAc(b1-2)Man(a1-3)[GlcNAc(b1-4)][Gal(b1-4)GlcNAc(b1-2)Man(a1-6)]Man(b1-4)GlcNAc(b1-4)GlcNAc
# In short: as §1
# [13] = target: Gal(b1-4)GlcNAc(b1-2)Man(a1-3)[Man(a1-6)]Man(b1-4)GlcNAc(b1-4)GlcNAc
# In short: as §1
# [14] = target: Gal(b1-4)GlcNAc(b1-2)Man(a1-6)Man(b1-4)GlcNAc(b1-4)GlcNAc
# In short: as §1
# [15] = target: Gal(b1-4)GlcNAc(b1-2)Man(a1-6)[GlcNAc(b1-2)Man(a1-3)]Man(b1-4)GlcNAc(b1-4)GlcNAc
# In short: as §1
# [16] = target: Gal(b1-4)GlcNAc(b1-2)Man(a1-6)[Man(a1-3)]Man(b1-4)GlcNAc(b1-4)GlcNAc
# In short: as §1
# [17] = target: Gal(b1-4)GlcNAc(b1-2)[Gal(b1-4)GlcNAc(b1-4)]Man(a1-3)[Gal(b1-4)GlcNAc(b1-2)Man(a1-6)]Man(b1-4)GlcNAc(b1-4)GlcNAc
# In short: as §1
# [18] = target: Gal(b1-4)GlcNAc(b1-2)[Gal(b1-4)GlcNAc(b1-4)]Man(a1-3)[Gal(b1-4)GlcNAc(b1-2)[Gal(b1-4)GlcNAc(b1-6)]Man(a1-6)]Man(b1-4)GlcNAc(b1-4)GlcNAc
# In short: as §1
binder,measurement,setting,value
B1,glycan array binding signal (z-score),[1],0.227
same,glycan array binding signal (z-score),[2],-0.019
same,glycan array binding signal (z-score),[3],-0.358
same,glycan array binding signal (z-score),[4],-0.188
same,glycan array binding signal (z-score),[5],0.329
same,glycan array binding signal (z-score),[6],-0.227
same,glycan array binding signal (z-score),[7],0.461
same,glycan array binding signal (z-score),[8],0.833
same,glycan array binding signal (z-score),[9],-0.227
same,glycan array binding signal (z-score),[10],-0.553
same,glycan array binding signal (z-score),[11],0.394
same,glycan array binding signal (z-score),[12],-0.305
same,glycan array binding signal (z-score),[13],-0.267
same,glycan array binding signal (z-score),[14],0.253
same,glycan array binding signal (z-score),[15],-0.21
same,glycan array binding signal (z-score),[16],-0.099
same,glycan array binding signal (z-score),[17],-0.275
same,glycan array binding signal (z-score),[18],-0.874

# — the supplement of paper PMC8728848
